Paper PMC5027283
Results are given in words; binding and its absence hold for the method and conditions named. For some of these results: Binding seen in cells or lysates may run through a third protein. Some results given as binding are weak or reduced against the parent protein; the word gives no strength. For some of these results: Sequences can lack the tags named with a protein.

Amino acid sequences for entries named in this document (tags omitted). A change or cut given only in a name is not applied to a line headed by its entry. Residues count along the entry.
UniProt O94953: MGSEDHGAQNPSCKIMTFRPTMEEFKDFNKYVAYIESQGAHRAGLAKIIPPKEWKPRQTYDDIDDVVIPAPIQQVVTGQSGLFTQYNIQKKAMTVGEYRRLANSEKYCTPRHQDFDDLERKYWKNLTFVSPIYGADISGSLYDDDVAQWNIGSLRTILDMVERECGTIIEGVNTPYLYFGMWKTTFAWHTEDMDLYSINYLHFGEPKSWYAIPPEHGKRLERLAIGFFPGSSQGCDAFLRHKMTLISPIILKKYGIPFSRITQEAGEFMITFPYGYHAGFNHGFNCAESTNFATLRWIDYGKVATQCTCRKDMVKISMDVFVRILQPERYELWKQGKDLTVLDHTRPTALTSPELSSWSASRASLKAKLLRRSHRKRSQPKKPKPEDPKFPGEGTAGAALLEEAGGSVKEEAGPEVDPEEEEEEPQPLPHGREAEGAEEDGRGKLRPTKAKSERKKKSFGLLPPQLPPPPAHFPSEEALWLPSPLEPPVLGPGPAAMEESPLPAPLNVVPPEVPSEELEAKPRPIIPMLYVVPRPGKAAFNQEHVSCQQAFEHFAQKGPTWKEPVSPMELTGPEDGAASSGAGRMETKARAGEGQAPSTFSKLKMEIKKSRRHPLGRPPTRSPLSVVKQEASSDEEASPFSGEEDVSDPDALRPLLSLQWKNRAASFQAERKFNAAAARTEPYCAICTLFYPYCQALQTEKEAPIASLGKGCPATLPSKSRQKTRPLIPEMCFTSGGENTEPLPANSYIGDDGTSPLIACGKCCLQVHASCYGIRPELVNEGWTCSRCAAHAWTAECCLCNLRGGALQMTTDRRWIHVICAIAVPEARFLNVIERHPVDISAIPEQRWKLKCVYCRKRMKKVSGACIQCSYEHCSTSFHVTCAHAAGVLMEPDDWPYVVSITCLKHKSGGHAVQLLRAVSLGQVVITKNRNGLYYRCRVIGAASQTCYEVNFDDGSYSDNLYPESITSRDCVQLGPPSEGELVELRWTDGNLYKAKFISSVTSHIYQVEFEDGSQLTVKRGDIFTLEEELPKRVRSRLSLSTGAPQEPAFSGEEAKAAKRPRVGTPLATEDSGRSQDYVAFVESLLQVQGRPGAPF
UniProt Q8TB45: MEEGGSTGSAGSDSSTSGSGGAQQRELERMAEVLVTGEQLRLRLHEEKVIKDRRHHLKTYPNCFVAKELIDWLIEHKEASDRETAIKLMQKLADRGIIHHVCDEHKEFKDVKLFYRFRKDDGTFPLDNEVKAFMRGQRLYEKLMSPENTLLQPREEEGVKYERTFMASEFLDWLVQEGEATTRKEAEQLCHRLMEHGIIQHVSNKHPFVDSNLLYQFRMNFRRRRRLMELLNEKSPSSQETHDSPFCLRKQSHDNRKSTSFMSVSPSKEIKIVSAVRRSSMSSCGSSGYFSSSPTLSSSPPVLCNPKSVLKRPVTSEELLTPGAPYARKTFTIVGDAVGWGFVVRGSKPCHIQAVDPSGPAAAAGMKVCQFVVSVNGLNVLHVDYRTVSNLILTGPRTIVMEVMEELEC
Flag-DEPTOR PDZ domain: residues 330-407 of Q8TB45
UniProt Q8N122: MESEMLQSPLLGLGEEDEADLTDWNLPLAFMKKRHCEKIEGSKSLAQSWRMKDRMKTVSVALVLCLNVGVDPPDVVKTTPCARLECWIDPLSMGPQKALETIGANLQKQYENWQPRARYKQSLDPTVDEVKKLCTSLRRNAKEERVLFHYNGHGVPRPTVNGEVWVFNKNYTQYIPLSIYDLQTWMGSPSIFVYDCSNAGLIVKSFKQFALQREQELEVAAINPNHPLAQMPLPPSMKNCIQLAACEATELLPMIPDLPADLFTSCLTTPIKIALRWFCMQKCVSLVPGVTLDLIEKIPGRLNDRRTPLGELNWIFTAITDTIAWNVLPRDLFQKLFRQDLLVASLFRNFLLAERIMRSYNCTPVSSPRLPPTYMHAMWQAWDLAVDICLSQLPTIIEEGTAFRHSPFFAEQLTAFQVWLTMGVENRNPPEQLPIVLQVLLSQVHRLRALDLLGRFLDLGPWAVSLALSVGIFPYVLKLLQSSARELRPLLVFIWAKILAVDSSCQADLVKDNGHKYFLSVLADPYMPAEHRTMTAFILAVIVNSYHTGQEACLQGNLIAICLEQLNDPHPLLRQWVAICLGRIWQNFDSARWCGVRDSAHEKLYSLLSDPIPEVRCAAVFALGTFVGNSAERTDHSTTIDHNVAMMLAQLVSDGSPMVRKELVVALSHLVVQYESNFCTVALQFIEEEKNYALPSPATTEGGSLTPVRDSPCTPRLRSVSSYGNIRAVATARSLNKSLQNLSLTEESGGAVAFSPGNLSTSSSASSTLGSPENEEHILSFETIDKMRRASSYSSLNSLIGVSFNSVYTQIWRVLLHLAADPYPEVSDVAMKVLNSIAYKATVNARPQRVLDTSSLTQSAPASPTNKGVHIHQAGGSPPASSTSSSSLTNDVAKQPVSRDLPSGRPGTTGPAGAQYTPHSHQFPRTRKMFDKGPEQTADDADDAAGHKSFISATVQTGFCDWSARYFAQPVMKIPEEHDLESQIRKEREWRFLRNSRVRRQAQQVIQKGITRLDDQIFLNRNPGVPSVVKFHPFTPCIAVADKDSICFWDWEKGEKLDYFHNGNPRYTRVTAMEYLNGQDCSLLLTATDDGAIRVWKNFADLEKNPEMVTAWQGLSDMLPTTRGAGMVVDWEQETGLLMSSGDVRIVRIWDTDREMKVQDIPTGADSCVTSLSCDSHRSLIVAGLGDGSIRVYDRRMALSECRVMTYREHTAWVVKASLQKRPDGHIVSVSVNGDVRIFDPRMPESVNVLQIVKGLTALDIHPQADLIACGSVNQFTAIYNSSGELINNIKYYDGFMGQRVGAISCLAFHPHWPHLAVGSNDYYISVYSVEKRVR

Legend:
[1] = target: T1, Flag-KDM4A (UniProt O75164); test: co-IP; anti-Flag M2 agarose beads, 2 h at 4 °C, lysates of transfected cells (293T where stated) in 0.3% CHAPS, 50 mM Hepes, 120 mM NaCl, 2 mM EDTA, sonicated; washed with lysis buffer containing 150 mM NaCl and with TBS
T1 sequence: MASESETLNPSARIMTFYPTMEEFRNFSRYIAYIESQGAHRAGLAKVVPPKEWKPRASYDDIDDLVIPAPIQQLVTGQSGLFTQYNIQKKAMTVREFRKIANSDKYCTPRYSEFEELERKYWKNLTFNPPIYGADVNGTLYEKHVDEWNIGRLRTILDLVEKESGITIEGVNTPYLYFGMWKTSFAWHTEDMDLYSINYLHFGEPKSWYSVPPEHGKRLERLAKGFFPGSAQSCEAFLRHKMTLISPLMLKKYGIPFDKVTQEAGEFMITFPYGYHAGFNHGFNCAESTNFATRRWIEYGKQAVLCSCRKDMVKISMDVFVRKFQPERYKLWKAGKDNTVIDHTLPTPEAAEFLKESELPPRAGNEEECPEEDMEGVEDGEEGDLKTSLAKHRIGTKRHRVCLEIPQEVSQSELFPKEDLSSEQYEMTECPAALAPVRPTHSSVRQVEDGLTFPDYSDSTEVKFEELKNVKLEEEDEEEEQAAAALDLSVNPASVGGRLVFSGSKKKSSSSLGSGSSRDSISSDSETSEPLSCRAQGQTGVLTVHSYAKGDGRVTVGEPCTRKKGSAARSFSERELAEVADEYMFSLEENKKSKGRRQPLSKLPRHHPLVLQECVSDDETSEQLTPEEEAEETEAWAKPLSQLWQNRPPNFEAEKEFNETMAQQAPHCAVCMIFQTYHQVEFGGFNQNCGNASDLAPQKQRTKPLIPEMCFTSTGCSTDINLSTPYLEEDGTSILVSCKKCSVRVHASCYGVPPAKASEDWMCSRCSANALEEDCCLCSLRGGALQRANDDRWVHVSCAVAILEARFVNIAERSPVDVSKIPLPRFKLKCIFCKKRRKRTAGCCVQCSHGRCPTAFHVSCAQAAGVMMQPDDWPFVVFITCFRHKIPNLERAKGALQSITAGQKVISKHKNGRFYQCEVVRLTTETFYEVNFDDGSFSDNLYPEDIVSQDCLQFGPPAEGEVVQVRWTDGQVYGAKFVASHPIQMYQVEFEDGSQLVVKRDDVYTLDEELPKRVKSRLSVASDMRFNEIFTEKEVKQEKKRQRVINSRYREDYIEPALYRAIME

[2] = target: T2, KDM4A (endogenous) (human (endogenous in 293E, HeLa, NHA-hTERT)) (UniProt O75164); test: co-IP; endogenous proteins; about 2 x 10^8 cells (NHAs, HeLa or 293E) in lysis buffer A with 0.5% Triton; 12 μg KDM4A or KDM4B antibody overnight at 4 °C, M-280 streptavidin-coated dynabeads 1 h; NO66 antibody as negative control
T2 sequence: T1 sequence

[3] = target: KDM4B (endogenous) (human (endogenous in NHAs, HeLa or 293E)) (UniProt O94953); test: as above
[4] = target: Flag-DEPTOR (full length) (UniProt Q8TB45); test: co-IP; anti-Flag M2 agarose beads, as the other Flag immunoprecipitations (0.3% CHAPS, 50 mM Hepes, 120 mM NaCl, 2 mM EDTA) but samples not sonicated (Fig. 3f)
[5] = target: Flag-DEPTOR PDZ domain (UniProt Q8TB45); test: as above
[6] = target: Flag-DEPTOR (full length) (UniProt Q8TB45); test: co-IP; anti-Flag M2 agarose beads, 2 h at 4 °C, lysates of transfected cells (293T where stated) in 0.3% CHAPS, 50 mM Hepes, 120 mM NaCl, 2 mM EDTA, sonicated; washed with lysis buffer containing 150 mM NaCl and with TBS
[7] = target: GST-DEPTOR (UniProt Q8TB45); test: condition: 500 ng of His-KDM4A (aa 1–562) with 1 μg of GST-DEPTOR; pull-down; 1 μg GST-DEPTOR on glutathione beads with 500 ng His-KDM4A fragment, 2 h at 4 °C, 25 mM HEPES pH 7.5, 250 mM KCl, 0.1% NP-40, 10% glycerol, 100 μg/ml BSA; both purified
[8] = target: GST-DEPTOR (UniProt Q8TB45); test: condition: 500 ng of His-KDM4A (aa 563–1064) with 1 μg of GST-DEPTOR; pull-down; 1 μg GST-DEPTOR on glutathione beads with 500 ng His-KDM4A fragment, 2 h at 4 °C, 25 mM HEPES pH 7.5, 250 mM KCl, 0.1% NP-40, 10% glycerol, 100 μg/ml BSA; both purified

Q: Which binding [1] does the source give for “DEPTOR (endogenous) (from UniProt Q8TB45 1-409)” here?
A: Its binding is “binds”.

Q: And the binding [2]?
A: Its binding is “binds”.

Q: What about the binding [3] of the same molecule?
A: The binding was “binds”.

Q: Which binding [1] does the source give for HA-DEPTOR (from UniProt Q8TB45 1-409) here?
A: The binding was “binds”.

Q: “Raptor (endogenous) (from UniProt Q8N122 1-1335)” was tested. Which binding [1] did it give?
A: Its binding is “binds weakly”.

B1: KDM4A (endogenous) (enzyme, UniProt O75164 1-1064)
chain: T1 sequence
Q: Which results are given for B1?
A: binding [4]: binds; binding [5]: binds; binding [6]: binds

B2: His-KDM4A(aa 1-562) (domain or fragment, UniProt O75164 1-562)
chain: MASESETLNPSARIMTFYPTMEEFRNFSRYIAYIESQGAHRAGLAKVVPPKEWKPRASYDDIDDLVIPAPIQQLVTGQSGLFTQYNIQKKAMTVREFRKIANSDKYCTPRYSEFEELERKYWKNLTFNPPIYGADVNGTLYEKHVDEWNIGRLRTILDLVEKESGITIEGVNTPYLYFGMWKTSFAWHTEDMDLYSINYLHFGEPKSWYSVPPEHGKRLERLAKGFFPGSAQSCEAFLRHKMTLISPLMLKKYGIPFDKVTQEAGEFMITFPYGYHAGFNHGFNCAESTNFATRRWIEYGKQAVLCSCRKDMVKISMDVFVRKFQPERYKLWKAGKDNTVIDHTLPTPEAAEFLKESELPPRAGNEEECPEEDMEGVEDGEEGDLKTSLAKHRIGTKRHRVCLEIPQEVSQSELFPKEDLSSEQYEMTECPAALAPVRPTHSSVRQVEDGLTFPDYSDSTEVKFEELKNVKLEEEDEEEEQAAAALDLSVNPASVGGRLVFSGSKKKSSSSLGSGSSRDSISSDSETSEPLSCRAQGQTGVLTVHSYAKGDGRVTVGEPCTR
Q: How did the binding [7] turn out when B2 was run?
A: Its binding is “no binding”.

B3: His-KDM4A(aa 563-1064) (domain or fragment, UniProt O75164 563-1064)
chain: KKGSAARSFSERELAEVADEYMFSLEENKKSKGRRQPLSKLPRHHPLVLQECVSDDETSEQLTPEEEAEETEAWAKPLSQLWQNRPPNFEAEKEFNETMAQQAPHCAVCMIFQTYHQVEFGGFNQNCGNASDLAPQKQRTKPLIPEMCFTSTGCSTDINLSTPYLEEDGTSILVSCKKCSVRVHASCYGVPPAKASEDWMCSRCSANALEEDCCLCSLRGGALQRANDDRWVHVSCAVAILEARFVNIAERSPVDVSKIPLPRFKLKCIFCKKRRKRTAGCCVQCSHGRCPTAFHVSCAQAAGVMMQPDDWPFVVFITCFRHKIPNLERAKGALQSITAGQKVISKHKNGRFYQCEVVRLTTETFYEVNFDDGSFSDNLYPEDIVSQDCLQFGPPAEGEVVQVRWTDGQVYGAKFVASHPIQMYQVEFEDGSQLVVKRDDVYTLDEELPKRVKSRLSVASDMRFNEIFTEKEVKQEKKRQRVINSRYREDYIEPALYRAIME
Q: For B3, which binding [8] is on record?
A: The binding was “no binding”.
